These results are taken from publication PMC5378613.

The chains behind the UniProt entries cited, without tags or fusion partners.
UniProt P10275: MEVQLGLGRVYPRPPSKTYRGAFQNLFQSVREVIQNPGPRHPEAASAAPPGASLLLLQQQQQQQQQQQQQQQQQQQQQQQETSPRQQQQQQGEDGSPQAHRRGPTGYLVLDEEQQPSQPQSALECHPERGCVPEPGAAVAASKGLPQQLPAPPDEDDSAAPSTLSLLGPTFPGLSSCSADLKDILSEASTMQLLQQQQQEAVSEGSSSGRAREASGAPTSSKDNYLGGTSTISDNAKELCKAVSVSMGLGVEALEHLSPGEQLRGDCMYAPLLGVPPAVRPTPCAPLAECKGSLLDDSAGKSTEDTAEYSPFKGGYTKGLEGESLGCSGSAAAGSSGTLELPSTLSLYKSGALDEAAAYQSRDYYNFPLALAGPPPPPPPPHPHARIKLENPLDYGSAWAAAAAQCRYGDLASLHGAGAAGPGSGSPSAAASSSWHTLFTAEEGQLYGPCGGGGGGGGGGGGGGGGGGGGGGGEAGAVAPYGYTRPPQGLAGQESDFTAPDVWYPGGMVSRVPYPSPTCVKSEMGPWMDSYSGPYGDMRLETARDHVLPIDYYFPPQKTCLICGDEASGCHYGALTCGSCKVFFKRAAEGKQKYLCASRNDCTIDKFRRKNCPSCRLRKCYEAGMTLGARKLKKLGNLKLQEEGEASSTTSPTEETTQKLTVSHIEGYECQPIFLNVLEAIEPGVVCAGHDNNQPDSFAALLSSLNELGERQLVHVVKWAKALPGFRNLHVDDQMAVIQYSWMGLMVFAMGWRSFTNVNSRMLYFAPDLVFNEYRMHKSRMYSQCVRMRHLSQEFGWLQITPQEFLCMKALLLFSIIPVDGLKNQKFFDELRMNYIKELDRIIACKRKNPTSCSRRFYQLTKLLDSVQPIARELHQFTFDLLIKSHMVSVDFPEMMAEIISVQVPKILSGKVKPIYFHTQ

The target of test [1] is GST-tagged AR (androgen receptor) (UniProt P10275). The experiment in a line: pull-down; GST-AR bound to a glutathione-coupled Sepharose column; recombinant ID4 passed through with 6xHis-FKBP52, cell-free; eluate blotted for ID4, FKBP52 and AR (Pierce GST kit); both purified.
In test [2] the target is T1, GST-ID4S73A (ID4 HLH mutant) (human) (UniProt P47928).
T1 sequence: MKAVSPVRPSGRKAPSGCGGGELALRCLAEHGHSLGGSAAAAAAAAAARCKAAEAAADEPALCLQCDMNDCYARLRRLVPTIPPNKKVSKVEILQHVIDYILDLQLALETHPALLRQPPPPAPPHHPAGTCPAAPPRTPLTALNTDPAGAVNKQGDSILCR
In words: pull-down; GST-ID4 or mutant GST-ID4 on a column, LNCaP and DU145 whole-cell lysates; bound proteins immunoblotted; only the target purified. In general terms: In western blotting, separated proteins are transferred to a membrane and probed.

Test [3] has as its target T2, GST-ID4∆A mutant (ID4 in which the alanine tract was deleted) (human) (UniProt P47928).
T2 sequence: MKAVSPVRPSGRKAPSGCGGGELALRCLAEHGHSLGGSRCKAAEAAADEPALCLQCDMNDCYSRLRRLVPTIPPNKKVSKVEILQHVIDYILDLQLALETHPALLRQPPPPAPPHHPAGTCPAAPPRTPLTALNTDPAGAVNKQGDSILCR
Described as above.

Test [4] deals with T3, full-length GST-ID4 (human) (UniProt P47928).
T3 sequence: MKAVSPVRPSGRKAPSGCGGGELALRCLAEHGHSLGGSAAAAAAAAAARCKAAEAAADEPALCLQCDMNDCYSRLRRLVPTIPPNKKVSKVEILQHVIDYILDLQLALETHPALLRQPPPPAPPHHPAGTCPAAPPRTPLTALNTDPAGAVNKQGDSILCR
The description is as above.

The target of test [5] is T4, wild-type His6-FKBP52 (52-kDa FK506-binding protein) (UniProt Q02790).
T4 sequence: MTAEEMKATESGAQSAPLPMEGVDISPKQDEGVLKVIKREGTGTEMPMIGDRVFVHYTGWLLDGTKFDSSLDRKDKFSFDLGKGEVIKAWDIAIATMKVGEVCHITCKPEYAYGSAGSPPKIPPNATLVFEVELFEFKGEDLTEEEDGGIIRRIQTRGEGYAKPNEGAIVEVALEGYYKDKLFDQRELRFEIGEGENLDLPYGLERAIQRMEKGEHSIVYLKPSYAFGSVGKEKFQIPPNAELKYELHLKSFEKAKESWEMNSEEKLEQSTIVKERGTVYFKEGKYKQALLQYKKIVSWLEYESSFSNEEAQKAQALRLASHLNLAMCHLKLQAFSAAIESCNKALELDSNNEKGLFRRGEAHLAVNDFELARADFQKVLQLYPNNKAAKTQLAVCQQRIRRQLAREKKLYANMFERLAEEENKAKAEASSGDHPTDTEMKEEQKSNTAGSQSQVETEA
The experiment in a line: pull-down; 6xHis-tagged FKBP52 bound to a nickel column, incubated with recombinant ID4 or its mutants; blotted (Pierce poly-histidine kit); both purified.

These are yes or no findings as the source states them, for the method shown. For some of these results: Binding seen in cells or lysates may run through a third protein. Some results given as binding are weak or reduced against the parent protein; the word gives no strength. Where a sequence is shown, tags or fusion partners need not be part of it.

B1: wild-type His6-FKBP52 (52-kDa FK506-binding protein) (protein, UniProt Q02790 1-459)
chain: MTAEEMKATESGAQSAPLPMEGVDISPKQDEGVLKVIKREGTGTEMPMIGDRVFVHYTGWLLDGTKFDSSLDRKDKFSFDLGKGEVIKAWDIAIATMKVGEVCHITCKPEYAYGSAGSPPKIPPNATLVFEVELFEFKGEDLTEEEDGGIIRRIQTRGEGYAKPNEGAIVEVALEGYYKDKLFDQRELRFEIGEGENLDLPYGLERAIQRMEKGEHSIVYLKPSYAFGSVGKEKFQIPPNAELKYELHLKSFEKAKESWEMNSEEKLEQSTIVKERGTVYFKEGKYKQALLQYKKIVSWLEYESSFSNEEAQKAQALRLASHLNLAMCHLKLQAFSAAIESCNKALELDSNNEKGLFRRGEAHLAVNDFELARADFQKVLQLYPNNKAAKTQLAVCQQRIRRQLAREKKLYANMFERLAEEENKAKAEASSGDHPTDTEMKEEQKSNTAGSQSQVETEA
Regarding B1, in test [1], the binding entry is listed as “binds”.

B2: FKBP52 (52-kDa FK506-binding protein), endogenous in prostate cancer cells (protein, UniProt Q02790 1-459)
chain: MTAEEMKATESGAQSAPLPMEGVDISPKQDEGVLKVIKREGTGTEMPMIGDRVFVHYTGWLLDGTKFDSSLDRKDKFSFDLGKGEVIKAWDIAIATMKVGEVCHITCKPEYAYGSAGSPPKIPPNATLVFEVELFEFKGEDLTEEEDGGIIRRIQTRGEGYAKPNEGAIVEVALEGYYKDKLFDQRELRFEIGEGENLDLPYGLERAIQRMEKGEHSIVYLKPSYAFGSVGKEKFQIPPNAELKYELHLKSFEKAKESWEMNSEEKLEQSTIVKERGTVYFKEGKYKQALLQYKKIVSWLEYESSFSNEEAQKAQALRLASHLNLAMCHLKLQAFSAAIESCNKALELDSNNEKGLFRRGEAHLAVNDFELARADFQKVLQLYPNNKAAKTQLAVCQQRIRRQLAREKKLYANMFERLAEEENKAKAEASSGDHPTDTEMKEEQKSNTAGSQSQVETEA
In the case of B2, the figures for the binding entry in test [2], in test [3] and in test [4] were “no binding”, “binds” and “binds”, respectively.

B3: recombinant human ID4 (inhibitor of differentiation 4), full length (protein, UniProt P47928 1-161)
chain: MKAVSPVRPSGRKAPSGCGGGELALRCLAEHGHSLGGSAAAAAAAAAARCKAAEAAADEPALCLQCDMNDCYSRLRRLVPTIPPNKKVSKVEILQHVIDYILDLQLALETHPALLRQPPPPAPPHHPAGTCPAAPPRTPLTALNTDPAGAVNKQGDSILCR
On to B3, for which the binding entry in test [5] is on record as “binds”.

B4: recombinant ID4S73A (ID4 HLH mutant) (protein, UniProt P47928 1-161)
chain: MKAVSPVRPSGRKAPSGCGGGELALRCLAEHGHSLGGSAAAAAAAAAARCKAAEAAADEPALCLQCDMNDCYARLRRLVPTIPPNKKVSKVEILQHVIDYILDLQLALETHPALLRQPPPPAPPHHPAGTCPAAPPRTPLTALNTDPAGAVNKQGDSILCR
For B4, the binding result in test [5] was “no binding”.

B5: recombinant ID4∆A mutant (ID4 in which the alanine tract was deleted) (protein, UniProt P47928)
chain: MKAVSPVRPSGRKAPSGCGGGELALRCLAEHGHSLGGSRCKAAEAAADEPALCLQCDMNDCYSRLRRLVPTIPPNKKVSKVEILQHVIDYILDLQLALETHPALLRQPPPPAPPHHPAGTCPAAPPRTPLTALNTDPAGAVNKQGDSILCR
Take B5: the binding result in test [5] is recorded as “binds”.
